Counter-ions that a name gives are not always drawn. The list shows a part of the results. Single values are uncertain, as repeats are few or missing.
Tested on: Ov4Carbo
Experiment: log2 surviving fraction (library drug vs vehicle, or drug + carboplatin vs carboplatin alone; relative to plate median); ovarian cancer lines: OVCAR4 is platinum-sensitive and Ov4Carbo platinum-resistant; higher = more cell survival
Conditions: library drug concentration 10 µM; 7 days; carboplatin co-treatment 5 µM

Row | SMILES | log2 surviving fraction
1 | CCN(CC)CCOc1ccc(C(=C(Cl)c2ccccc2)c2ccccc2)cc1 [Clomifene citrate (Serophene)] | -3.31
2 | COC(=O)[C@H](c1ccccc1Cl)N1CCc2sccc2C1 [Clopidogrel (Plavix)] | 0.244
3 | Oc1c(Br)cc(Br)c2cccnc12 [Broxyquinoline] | -0.791
4 | NC(=O)c1ncn([C@@H]2O[C@H](CO)[C@@H](O)[C@H]2O)c1N [Acadesine] | 0.825
5 | CCCSc1ccc2[nH]c(NC(=O)OC)nc2c1 [Albendazole (Albenza)] | -5.11
